Results as given in PubChem BioAssay AID1454 (National Center for Advancing Translational Sciences (NCATS), 2008).
Out of some 130,000 compounds screened, about 550 (0.42%) were called active. Inconclusive means that the source gave no clear call. Such entries were picked first, then a sample of the others. Calls follow the shape of the dose curve; as a rule, active = well fitted inhibition curve with a large enough effect; inconclusive = small, poorly fitted or top-dose-only effect, or effect the other way; inactive = flat fitted curve, though single readings scatter. Potencies of inconclusive entries are left out as doubtful fits.
Potency is read from the fitted curve at half-maximal effect; tags tell the direction and shape of the fitted curve.

Experiment: qHTS Assay for Inhibitors of the ERK Signaling Pathway using a Homogeneous Screening Assay; Stimulation with EGF; also: nearly all actives have a fitted effect of over 55% in size;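 as to activity change, negative = inhibition: plate controls were stimulated vehicle wells for no effect and unstimulated vehicle basal for full effect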
Details: HEK293-V1b, EGF-stimulated phospho-ERK AlphaScreen; activity change, negative = inhibition: at the top concentration
Outline: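 EGF-stimulated (25 nM, 5 min) phospho-ERK in HEK293 cells stably expressing V1b, cells pretreated 30 min with compound at 37C. Homogeneous AlphaScreen read on lysates.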
For `COCCn1c(=O)c(-c2ccccc2)nc2cnc(OCc3ccccc3)nc21`, the Potency was inconclusive [activator, partial curve].
For `O=C1c2ccccc2C(=O)c2c(O)c(O)cc(O)c21`, the Potency was inconclusive [inhibitor, partial curve].
With `Cc1ccc(Nc2c(-c3ccccn3)nc3ccc(C)cn23)cc1` the “activity change, negative = inhibition” value was inactive: 1.74%.
With `C=C(CCC(=O)c1ccccc1)C(=O)c1ccccc1` the Potency was inconclusive [activator, full curve, poor fit].
In the case of `COc1ccccc1Nc1ccc(N)cc1`, the Potency is reported as inconclusive [inhibitor, single point].
In the case of `CCc1c(C)c2ccc(OCC(=O)OC(C)C)c(C)c2oc1=O`, the Potency is reported as inconclusive [inhibitor, single point].
With `Fc1ccc(C(CNC(=S)NC2CCCCC2)N2CCOCC2)cc1` (stereo not given) the “activity change, negative = inhibition” value was inactive: 1.88%.
With `CCCCOC(=O)C1CN(c2ccccc2)N=C1C(C)=O` (stereo not given) the Potency was inconclusive [activator, partial curve].
With `O=C(NC[C@@H]1CCCCN1)c1cc(OCC(F)(F)F)ccc1OCC(F)(F)F` the “activity change, negative = inhibition” value was inactive: -6.11% [at 25.7 µM].
With `COc1ccc(C(=O)[C@H]2[C@H]3C(=O)N(c4ccccc4)C(=O)[C@H]3C3C=CC=NN32)cc1` (stereo not given in full) the Potency was inconclusive [inhibitor, single point].
With `COc1cccc(/C=C/C(=O)OCC(=O)c2c[nH]c3ccccc23)c1OC` the Potency was inconclusive [inhibitor, single point].
For `S=C(NCCCN1CCOCC1)Nc1ccc(-c2nc3ccccc3[nH]2)cc1`, the Potency was inconclusive [inhibitor, single point].
For `CC(C)[C@H](NC(=O)[C@@H]1CSCN1C(=O)OC(C)(C)C)C(=O)NCC1CCC(C(=O)O)CC1` (stereo not given in full), the Potency was inconclusive [activator, single point].
In the case of `COc1cc(/C=C2\SC(=S)N(N(C)c3ccccc3)C2=O)ccc1O`, the Potency is reported as inconclusive [inhibitor, single point].
For `COc1ccc(N2CCC(CNC(=S)Nc3cccc(C)c3)C2)cc1` (stereo not given), the Potency was inconclusive [inhibitor, partial curve].
With `CN1/C(=C\C(=S)NC(=O)c2ccccc2Cl)C(C)(C)c2ccccc21` the Potency was inconclusive [inhibitor, single point].
In the case of `O=c1c2ccccc2nc(-c2ccc(Cl)cc2Cl)n1O`, the Potency is reported as inconclusive [inhibitor, partial curve].
For `COc1ccc(Oc2nc(-c3cccnc3)nc3ccccc23)cc1`, the “activity change, negative = inhibition” value was inactive: 5.55% [at 57.5 µM].
In the case of `Cc1[nH]nc2c1C(c1c[nH]c3ccccc13)C(C#N)=C(N)O2` (stereo not given), the Potency is reported as inconclusive [inhibitor, partial curve].
In the case of `NNC(=O)c1oc2nc(-c3ccco3)cc(-c3ccco3)c2c1N`, the Potency is reported as inconclusive [inhibitor, partial curve].
For `O=C(Nc1ccc2oc(=O)ccc2c1)c1ccc(-c2cccc(Cl)c2)o1`, the Potency was inconclusive [inhibitor, single point].
For `Cc1cccc(N(CC(=O)NCc2ccc(F)cc2)C(=O)c2csnn2)c1C`, the Potency was inconclusive [inhibitor, single point].
In the case of `COCCn1c(=O)c(-c2cn(C)c3ccccc23)nc2cnc(Oc3ccc(OC)cc3)nc21`, the Potency is reported as inconclusive [activator, partial curve].
For `Cc1ccc(OCC(=O)c2cc(C)n(CC(F)(F)F)c2C)c([N+](=O)[O-])n1`, the Potency was inconclusive [inhibitor, single point].
For `Cn1c(SCC(=O)N/N=C/c2ccc(O)c(O)c2)nc2ccccc21`, the Potency was inconclusive [inhibitor, single point].
With `CC(=O)Nc1cccc(/C(C)=N/Nc2nc3ccccc3s2)c1` the Potency was inconclusive [inhibitor, single point].
In the case of `CCN(CC)CCOc1ccc2c(c1)C(=NNC(=O)c1ccccn1)c1cc(OCCN(CC)CC)ccc1-2`, the Potency is reported as inconclusive [inhibitor, single point].
For `O=C(CCC1CCCCC1)NCCN1C2=NC[C@H](Cc3ccccc3)N2C[C@H]1Cc1ccc(O)cc1`, the “activity change, negative = inhibition” value was inactive: -9.71% [at 57.5 µM].
For `Nc1cc(C(=O)O)c(N)c2c1C(=O)c1ccccc1C2=O`, the Potency was active: 28.2 µM.
For `CNc1ccc(/C=C/C(=O)c2ccc(C)cc2)cc1[N+](=O)[O-]`, the Potency was inconclusive [inhibitor, partial curve].
With `Nc1nc(Nc2ccccc2)nc(NCc2ccccc2)c1[N+](=O)[O-]` the Potency was inconclusive [inhibitor, single point].
With `COc1ccccc1-c1cc(N)n(S(=O)(=O)c2cccc3nsnc23)n1` the Potency was inconclusive [inhibitor, single point].
With `[O-]C1=N/[N+](=C/c2ccccc2)CC1` the Potency was inconclusive [inhibitor, full curve].
With `COc1ccc(-c2nnc(-c3cc(OC)c(OC)c(OC)c3)o2)cc1OC` the Potency was inconclusive [inhibitor, single point].
In the case of `CCC(C)n1c(SCC(=O)NCCc2ccc(S(N)(=O)=O)cc2)nc2ccsc2c1=O` (stereo not given), the “activity change, negative = inhibition” value is reported as inactive: -1.26%.
For `O=C(Nc1ccc(S(=O)(=O)NC2=NCCCCC2)cc1)c1ccc(C(F)(F)F)cc1`, the Potency was inconclusive [inhibitor, single point].
For `Cn1cccc1C(=O)N1CCC2(CCCN(Cc3ccccc3)C2)CC1`, the “activity change, negative = inhibition” value was inactive: -6.13%.
In the case of `O=C(/C=C1\C(=O)Nc2ccccc21)/C=C1\C(=O)Nc2ccccc21`, the Potency is reported as inconclusive [inhibitor, single point].
For `O=C(/C=C/c1ccc([N+](=O)[O-])cc1)OCC(=O)N1c2ccccc2Sc2ccccc21`, the Potency was inconclusive [inhibitor, partial curve].
In the case of `CC(C(=O)Nc1ccc(S(=O)(=O)N2CCOCC2)cc1)N1C(=O)C2CC=CCC2C1=O` (stereo not given), the Potency is reported as inconclusive [activator, full curve, poor fit].
With `COc1ccc(NC(=O)c2ccc(-c3ccccc3)cc2)cc1S(=O)(=O)N1CCOCC1` the Potency was inconclusive [inhibitor, partial curve, poor fit].
In the case of `Cc1[nH]c2ccc(F)cc2c1CCN(Cc1ccncc1)C(=S)Nc1ccccc1`, the Potency is reported as inconclusive [inhibitor, single point].
For `Cc1ccc(C2=NOC(=O)/C2=C\C=C\c2ccccc2)cc1`, the Potency was active: 31.6 µM.
In the case of `COc1cc(CNCCNC(=O)c2nonc2N)ccc1OCc1ccc(Cl)cc1`, the Potency is reported as inconclusive [inhibitor, single point].
For `O=C(NC[C@H](O)c1ccccc1)c1ccccc1`, the “activity change, negative = inhibition” value was inactive: -2.61%.
For `CC(OC(=O)CNC(=O)C12CC3CC(CC(C3)C1)C2)C(=O)Nc1ccc(S(N)(=O)=O)cc1` (stereo not given), the “activity change, negative = inhibition” value was inactive: -4.95%.
With `NCCCCC(N)C(=O)NC(Cc1ccc(O)cc1)C(=O)NC(CCCCN)C(=O)O` (stereo not given) the “activity change, negative = inhibition” value was inactive: 18.3%.
In the case of `COc1ccc(N(/N=C2\Sc3ccccc3C2=O)C(C)=O)cc1`, the Potency is reported as inconclusive [inhibitor, partial curve].
For `COc1ccccc1CNc1ncnc2cc(OC)c(OC)cc12`, the Potency was inconclusive [inhibitor, single point].
With `Cc1ccccc1-n1c(SCc2csc(Nc3ccccc3)n2)nnc1-c1cccnc1` the Potency was inconclusive [inhibitor, single point].
In the case of `CN(Cc1ccccc1)c1ccc(C(CC(N)=O)NC(=O)Cc2ccc(Br)cc2)cc1[N+](=O)[O-]` (stereo not given), the Potency is reported as active: 31.6 µM.
For `Cc1cccc(CSc2ncnc3ccccc23)c1`, the “activity change, negative = inhibition” value was inactive: -5.7%.
With `CCCCN=Cc1c(C)[nH]n(-c2ccccc2)c1=S` the “activity change, negative = inhibition” value was inactive: 7.51%.
With `CC(C)(C)NC(=O)[C@@H]1CC[C@@H]2[C@@H]3CC[C@@H]4NC(=O)C=C[C@@]4(C)[C@H]3CC[C@]21C` the “activity change, negative = inhibition” value was inactive: 3.46% [at 25.7 µM].
In the case of `Cc1ccccc1CC1(CO)CCCN(C(=O)c2cc(-c3ccccc3)no2)C1` (stereo not given), the Potency is reported as inconclusive [inhibitor, single point].
With `N#CC1=C(N)S[C@@H](C(=O)c2ccc(F)cc2)[C@@H]1c1cccs1` the Potency was inconclusive [inhibitor, single point].
With `COc1cc2ncnc(NCc3cccs3)c2cc1OC` the Potency was active: 2.51 µM.
For `C[C@@H]1C[C@H]2[C@H]3C[C@@H](F)C4=CC(=O)C=C[C@]4(C)[C@@]3(Cl)[C@@H](O)C[C@@]2(C)[C@@H]1C(=O)COC(=O)C(C)(C)C`, the “activity change, negative = inhibition” value was inactive: -3.33% [at 25.7 µM].
With `CCOc1ccc(/C=C/C(O)=C2/C(=O)N(C)C3(C)CC2c2ccccc2O3)cc1OC` (stereo not given) the Potency was inconclusive [activator, single point].
With `Cc1ccc(-n2c(-c3ccccc3)c[nH]c2=S)cc1` the Potency was inconclusive [inhibitor, partial curve].
With `CCOC(=O)C1=C(C)N=C2c3ccccc3C(=O)C2C1c1ccc(Br)cc1` (stereo not given) the Potency was inconclusive [inhibitor, single point].
For `COc1ccc(CN(C(=O)Cn2nnc(-c3ccc(C)o3)n2)C(C(=O)NCC2CCCO2)c2ccco2)cc1` (stereo not given), the Potency was inconclusive [inhibitor, single point].
With `CC1(C)CC(N=C2C([N+](=O)[O-])=CC=C3C2=NC2(CCCCC2)N3O)CC(C)(C)N1` the Potency was inconclusive [inhibitor, single point].
For `Nc1ccccc1Nc1cc(-c2ccccc2)nn1-c1ccccc1`, the Potency was inconclusive [inhibitor, single point].
For `CC(C)Oc1cccc(C(=O)C2CCCN(Cc3cccn3-c3cccnc3)C2)c1` (stereo not given), the Potency was inconclusive [inhibitor, partial curve].
